Screen size: about 2,000 compounds; about 45 (2%) were called active.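 Rule for the calls: active = inhibition above the mean of all tested compounds plus 3 SD (cut at about 49% in these data); inactive = the rest.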 The list shows a part of the results.
Each compound was assayed against Perilipin-5 (Homo sapiens) + 1-acylglycerol-3-phosphate O-acyltransferase ABHD5 (Homo sapiens) (UniProt Q00G26+Q8WTS1) (assay: blockers of ABHD5 binding to perilipin-5 – cell lysate, split luciferase complementation, luminescence, NIH validation set, pilot screen (AID 493035;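 note: 0% = DMSO only wells while the 100% control is not stated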)). Settings: split G. princeps luciferase complementation, lysates, 4 h; at 7.9 µM, hits give high values.
Sequence of UniProt Q00G26 (Q00G26 whole entry, looked up): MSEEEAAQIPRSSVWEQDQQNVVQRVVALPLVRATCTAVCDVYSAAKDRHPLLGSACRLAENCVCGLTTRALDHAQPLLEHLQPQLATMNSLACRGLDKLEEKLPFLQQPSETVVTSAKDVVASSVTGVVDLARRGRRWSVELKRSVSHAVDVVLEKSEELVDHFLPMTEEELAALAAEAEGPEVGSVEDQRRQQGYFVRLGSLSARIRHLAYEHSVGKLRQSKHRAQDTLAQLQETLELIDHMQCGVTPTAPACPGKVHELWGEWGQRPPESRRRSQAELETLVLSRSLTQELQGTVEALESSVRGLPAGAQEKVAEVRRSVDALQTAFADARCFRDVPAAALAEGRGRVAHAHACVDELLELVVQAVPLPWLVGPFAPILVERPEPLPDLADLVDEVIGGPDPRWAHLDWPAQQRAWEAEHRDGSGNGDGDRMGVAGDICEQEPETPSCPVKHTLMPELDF
Sequence of UniProt Q00G26 (Q8WTS1 whole entry, looked up): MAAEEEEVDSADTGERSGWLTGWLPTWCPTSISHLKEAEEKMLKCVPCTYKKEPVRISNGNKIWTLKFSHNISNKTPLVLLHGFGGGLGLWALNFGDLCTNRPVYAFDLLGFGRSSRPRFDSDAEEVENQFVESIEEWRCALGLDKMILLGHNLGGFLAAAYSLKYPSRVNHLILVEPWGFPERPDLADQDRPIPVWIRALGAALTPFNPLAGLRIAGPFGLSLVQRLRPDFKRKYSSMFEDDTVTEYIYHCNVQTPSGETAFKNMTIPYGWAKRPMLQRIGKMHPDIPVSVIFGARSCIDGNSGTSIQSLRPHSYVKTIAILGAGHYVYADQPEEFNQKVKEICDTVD

inhibition, inactive:
CN(C)CCC(c1ccc(Cl)cc1)c1ccccn1 (configuration not stated) 0.44%, COc1ccc(C(=O)c2oc3ccc(Br)cc3c2NC(C)=O)cc1 13.6%, O=C(CC1(O)C(=O)Nc2ccccc21)c1ccccc1O (configuration not stated) 1.58%, COc1ccc(-c2coc3cc(O)cc(O)c3c2=O)cc1 2%, COc1ccccc1C1C(C#N)=C(N)Oc2c1oc(CO)cc2=O (configuration not stated) -4.43%, CC1(C)CC(=O)C(C(=O)CCCCC(=O)C2C(=O)CC(C)(C)CC2=O)C(=O)C1 -7.3%, CCOC(=O)C1C(=O)OC(C)(C)C1C(C)C(=O)c1ccc(C)cc1 (configuration not stated) 3.7%, O=C(Cc1cccc2ccccc12)N1CC[C@@]2(O)CCCC[C@H]2C1 -4.58%, CCOC(=O)c1ccccc1NC(=O)c1ccc(F)cc1 -5.05%, Cc1nc(N)nc2c1CCCC2 -5.32%, CC[n+]1c(C)sc2cc(C)ccc21 34.1%, CCc1cc(=O)oc2cc3occ(-c4ccc(OC)c(F)c4)c3cc12 14.2%, Cc1ccc(SCC(=O)Nc2nccs2)cc1 10.4%, COc1ccc(CCN(C)Cc2nc(Cc3ccc(OC)c(OC)c3)no2)cc1OC -3.3%, Nc1nc2c(nc(SCc3ccccc3Br)n2C2OC(CO)C(O)C2O)c(=O)[nH]1 (configuration not stated) 3.58%, Cc1ccc(NC(=O)CSc2nc(O)c(Cc3ccccc3)c(=O)n2-c2ccccc2)cc1 7.2%, COCCCN1C(=O)C(=O)/C(=C(/O)c2ccc3c(c2)CC(C)O3)C1c1cccnc1 (configuration not stated) -13.3%, COc1ccc2cc(C(=O)Nc3ccc(S(N)(=O)=O)cc3)sc(=O)c2c1OC -10.1%, CSc1ccc(CN2CCN(CCC(C)C)C(CCO)C2)cc1 (configuration not stated) 1.38%, Cc1ccc2c(c1)C1CN(C)CCC1N2S(=O)(=O)c1ccc(Oc2ccc([N+](=O)[O-])cc2)cc1 (configuration not stated) -13.9%, COc1cccc(N2C(=O)[C@H]3C(C(=O)c4cnccn4)=NN[C@H]3C2=O)c1 13.8%, COc1ccc(CNC(=O)N[C@H](C(=O)O)C(C)C)cc1OC -6.93%, CC1(C)CC(CC(=O)Nc2nccs2)(c2ccccc2)CCO1 (configuration not stated) 2.38%, CC(=O)c1c[nH]c2ccc(C)cc2c1=O 0.04%, O=C(NCC1CCCCN1)c1cc(OCC(F)(F)F)ccc1OCC(F)(F)F (configuration not stated) 1.12%, CC1CCc2cc(F)cc3c(=O)c(C(=O)O)cn1c23 (configuration not stated) 8.1%, CCCCOc1ccc(OCCCN2CCOCC2)cc1 -4.9%

— PubChem BioAssay AID493035 (The Scripps Research Institute Molecular Screening Center, 2011)
